Assay results as given in PubChem BioAssay AID651820 (National Center for Advancing Translational Sciences (NCATS), 2012).
The campaign covered roughly 340,000 compounds. About 12,000 (3.5%) were called active. The inconclusive results got no clear call from the source; some entries with a clear call stand among them for comparison. The call rests on the fitted dose curve; in most records, active means well fitted inhibition curve with a large enough effect; inconclusive means small, poorly fitted or top-dose-only effect, or another doubt; inactive means no such curve, though single readings can be large or run the other way. Potencies of inconclusive entries are left out as doubtful fits.

Assay: qHTS Assay for Inhibitors of Hepatitis C Virus (HCV)
Conditions: Huh7.5.1 HCVcc-Cre (HCVcc is cell-culture hepatitis C virus) infection, luciferase reporter, 44 h; activity change, negative = inhibition: at 41.8 µM (top of the series)
How it was run: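 Infectious HCV cell culture screen: compound-treated cells (1,000/well, pre-plated 4 h) are infected with HCVcc-Cre at roughly 0.5 moi and grown 44 h. Infection is quantified by luciferase signal after 15 min substrate incubation at room temperature.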
On the % scale 0 is the no-effect control and ±100 the full control effect; potency means the concentration at half of the fitted maximal effect; tags describe the fitted curve by direction and shape.

Compound	activity change, negative = inhibition	Potency
OC(CN1CCCCC1)c1ccc2c3c(cccc13)CC2 (stereo not given)	inconclusive: -33.2% [inhibitor]	–
CC(C)(C)n1cccc1/C=C1\C(=O)NC(=O)N(c2ccccc2)C1=O	–	inactive
Cc1ccccc1Cn1c(=O)n(CCC(=O)NCc2ccc3c(c2)OCO3)c(=O)c2ccccc21	–	inactive
CCOC(=O)c1c(NC(=O)c2nn(C)cc2[N+](=O)[O-])sc(C)c1C	–	active: 3.55 µM
CCOC(=O)CC(C)(C)/C(C)=N/Nc1ccc([N+](=O)[O-])cc1[N+](=O)[O-]	–	inconclusive [inhibitor, single point]
Cc1[nH]nc2nc(SCC(=O)NC3CCCCC3)n(-c3ccc(Br)cc3)c(=N)c12	–	inconclusive [inhibitor, partial curve]
O=C(NC1=NCCS1)C1CCN(S(=O)(=O)c2ccccc2C(F)(F)F)CC1	–	inactive
COC(=O)/C=c1/s/c(=C(\C#N)C(=O)NCc2ccco2)n(-c2ccccc2)c1=O	–	inactive
Cc1ccc(NC(=O)Cn2c(=O)cnc3ccccc32)cc1S(=O)(=O)N1CCCCC1	–	active: 11.2 µM
CC(Oc1ccc2c(=O)c(-c3ccc(Cl)cc3)c(C(F)(F)F)oc2c1)C(=O)O (stereo not given)	–	inactive
COC(=O)c1cc(C)sc1NC(=O)CCc1ccccc1	–	inactive
COc1ccc(CCn2c(=S)[nH]c3cc(C(=O)N4CCOCC4)ccc3c2=O)cc1OC	–	inconclusive [inhibitor, partial curve]
Cc1ccc2nc(NC(=O)CN3CCN(c4ccccn4)CC3)sc2c1	–	inconclusive [inhibitor, single point]
Cc1cc(Br)cc2cn[nH]c12	–	inconclusive [inhibitor, single point]
CN1CCN(c2c(/C=N/O)c3ccccc3n2C)CC1	–	inactive
CC(C)c1nc2cc(C(=O)N3CCN(c4cnccn4)CC3)ccc2o1	–	inactive
CCOc1ccccc1NC(=O)CCCCCN1C(=O)[C@@H]2Cc3ccccc3CN2C1=O	–	inconclusive [inhibitor, full curve]
Cc1cc(C(=O)CN2C(=O)NC3(CCCc4sccc43)C2=O)c(C)n1-c1ccccc1 (stereo not given)	–	inconclusive [inhibitor, single point]
C=C1CCN([C@@H](Cc2ccccc2)C(=O)Nc2ccc(OC)cc2)S(=O)(=O)c2ccccc21	–	inconclusive [inhibitor, single point]
CCOC(=O)c1c(C)c(C)n(Cc2ccc(OC)c(OC)c2)c1C	–	inconclusive [inhibitor, single point]
Cn1c(=O)c2c(n(Cc3ccccc3)c1=O)NC(=O)C2CC(=O)N1CCc2ccccc2C1 (stereo not given)	–	inconclusive [inhibitor, single point]
Cc1ccccc1N=C(NOCc1ccc(Cl)cc1Cl)c1nonc1N	–	inconclusive [inhibitor, partial curve, poor fit]
C/C=C/C(=O)Nc1nnc(C2CCCCC2)s1	–	inactive

Compound	activity change, negative = inhibition	Potency
COc1cc(NC(=O)c2cc([N+](=O)[O-])ccc2NC(=O)CNC2CCCCC2)cc(OC)c1	–	inconclusive [inhibitor, partial curve]
COc1ccc(CNCCC2(Cc3ccccc3)CC(C)N(C)CC2C)cc1OC (stereo not given)	–	active: 7.94 µM
O=C(NCCc1c[nH]c2ccccc12)C(=O)NCC1OCCCN1S(=O)(=O)c1cc(F)ccc1F (stereo not given)	–	inactive
O=[N+]([O-])c1cnc2ccc3ccccc3c2c1	–	inconclusive [inhibitor, single point]
COc1cccc(NC(=S)/C(=C(\[O-])c2ccc(C)c([N+](=O)[O-])c2)[n+]2ccccc2)c1	–	inconclusive [inhibitor, partial curve, poor fit]
Fc1ccccc1-c1csc(=Nc2cccnc2)n1CCCn1ccnc1	–	active: 22.4 µM
COc1ccc(NC(=O)c2ccco2)cc1NC(=O)c1cccc(OC(C)C)c1	–	inconclusive [inhibitor, single point]
O=C(Nc1cc(S(=O)(=O)N2CCOCC2)ccc1Cl)C(=O)c1c(-c2ccccc2)cc2ccccn12	–	inconclusive [inhibitor, partial curve]
Clc1ccc2c(NCc3cccs3)ncnc2c1	–	inconclusive [inhibitor, partial curve]
CCOC(=O)C1=C(C)N(C[C@@H]2CC[C@@H](Cc3ccc(-c4ccccc4)cc3)O2)C(=O)NC1c1ccc(SCc2ccco2)c([N+](=O)[O-])c1 (stereo not given in full)	–	inconclusive [inhibitor, single point]
O=c1cc(N2CCCCC2)c(-c2ccccc2)nn1Cc1ccccc1Cl	–	inconclusive [inhibitor, single point]
Cc1nn(C)c(Oc2ccccc2)c1CCNS(=O)(=O)c1ccc(Cl)cc1	–	active: 10 µM
c1ccc2c(C[C@@H]3CNCCN3CCC34CC5CC(CC(C5)C3)C4)cccc2c1	–	inconclusive [inhibitor, single point]
O=C(COc1cc(Cl)ccc1Cl)Nc1ccc2c(c1)CCC2	–	inconclusive [inhibitor, single point]
CCN1CCN(c2ccc(NC(=O)c3cccc(F)c3)cc2Cl)CC1	–	inactive
Clc1ccc(-n2ncc3c(NCC4CCCO4)ncnc32)cc1 (stereo not given)	–	inconclusive [inhibitor, partial curve]
CC1=C(C(=O)OC2CCCCC2)C(c2ccc(C)o2)C2=C(CCCC2=O)N1 (stereo not given)	–	inactive
Cc1ccc(-c2c3c(nc4sc(C(N)=O)c(N)c24)CCCC3)o1	–	inactive
Cc1cc(C)nc(N/N=C2/CCSc3ccc(F)cc32)n1	–	inactive
Cc1ccsc1C(=O)Nc1cc(C(C)(C)C)nn1-c1ccccc1	–	inconclusive [inhibitor, single point]
Cc1ccc(OCC(=O)N/N=C\c2cn(C)c3ccccc23)c([N+](=O)[O-])c1	–	inconclusive [inhibitor, single point]
O=[N+]([O-])c1ccc(-c2ccc(S(=O)(=O)NCCN3CCCC3)cc2)cc1	–	active: 10 µM
